Results on 89 molecules are retold here after publication PMC4336329 (PLoS ONE, 2015).

The whole screen tested about 310,000 compounds, of which about 2,200 (0.71%) showed an effect of 50% or more. The effect is printed as a negative number. The list shows a part of the results.

Chain of human ether-à-go-go-related gene (hERG) potassium channel (Q12809 whole entry, looked up): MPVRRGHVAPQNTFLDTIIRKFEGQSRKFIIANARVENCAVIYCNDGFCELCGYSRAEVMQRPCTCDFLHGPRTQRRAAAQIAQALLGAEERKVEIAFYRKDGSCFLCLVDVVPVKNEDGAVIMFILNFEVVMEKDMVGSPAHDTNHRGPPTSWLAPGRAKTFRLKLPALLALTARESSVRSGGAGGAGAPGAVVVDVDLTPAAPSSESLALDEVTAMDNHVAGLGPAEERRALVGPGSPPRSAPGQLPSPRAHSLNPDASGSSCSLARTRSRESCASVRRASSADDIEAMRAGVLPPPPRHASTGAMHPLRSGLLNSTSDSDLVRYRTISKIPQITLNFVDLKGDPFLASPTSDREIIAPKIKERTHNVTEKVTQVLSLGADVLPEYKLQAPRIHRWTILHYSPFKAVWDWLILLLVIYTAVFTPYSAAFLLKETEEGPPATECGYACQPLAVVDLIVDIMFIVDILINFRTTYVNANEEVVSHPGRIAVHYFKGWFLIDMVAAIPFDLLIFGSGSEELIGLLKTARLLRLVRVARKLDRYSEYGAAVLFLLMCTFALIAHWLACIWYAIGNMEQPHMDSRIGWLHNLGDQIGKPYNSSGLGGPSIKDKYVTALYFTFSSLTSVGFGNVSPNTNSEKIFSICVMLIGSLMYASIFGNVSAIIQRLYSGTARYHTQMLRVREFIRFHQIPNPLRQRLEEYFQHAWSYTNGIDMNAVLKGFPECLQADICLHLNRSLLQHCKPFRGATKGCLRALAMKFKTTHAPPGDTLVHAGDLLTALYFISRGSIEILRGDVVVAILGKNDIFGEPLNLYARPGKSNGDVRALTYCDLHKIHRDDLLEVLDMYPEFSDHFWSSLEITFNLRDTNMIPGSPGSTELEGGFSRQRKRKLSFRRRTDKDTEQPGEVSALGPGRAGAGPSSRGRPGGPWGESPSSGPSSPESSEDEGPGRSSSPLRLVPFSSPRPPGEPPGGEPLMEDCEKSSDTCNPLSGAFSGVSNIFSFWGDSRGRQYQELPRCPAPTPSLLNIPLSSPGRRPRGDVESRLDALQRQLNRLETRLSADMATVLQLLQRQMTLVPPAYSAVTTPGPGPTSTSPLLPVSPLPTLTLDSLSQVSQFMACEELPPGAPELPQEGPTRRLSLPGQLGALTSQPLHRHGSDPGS

The assay addresses human ether-à-go-go-related gene (hERG) potassium channel (human, UniProt Q12809). The assay can be described thus: primary screen, population patch clamp on CHO cells stably expressing hERG.
Take `CS(=O)(=O)N1CCN(c2ncccn2)CC1`: the “hERG current change (%, negative = inhibition) at 1uM” value is listed as 7.77%. The result for `Oc1ccc2ccccc2c1N=Nc1ccc(F)cc1` reads 14.2%; that for `Cc1cccc(NC(=O)N2CCCc3ccccc32)c1C`, 12.4%; that for `N#C/C(=C\c1ccc(Sc2ccc(Cl)cc2)o1)c1nc2ccccc2[nH]1`, 3.08%. The value for `CCSc1nc2c(cnn2-c2ccccc2)c(=O)n1N` was 10.8%; that for `CCOC(=O)c1c(NC(=O)c2ccc(Br)o2)sc(C)c1CC` was 1.58%; that for `CCN1CCN(Cc2nc3c(c(=O)[nH]c(=O)n3C)n2Cc2ccccc2Cl)CC1` was 10.5%.

On to `CCCNC(=O)C(CC)NC(=O)c1ccc(C#N)cc1` (centres unmarked), for which the “hERG current change (%, negative = inhibition) at 1uM” value worked out at 15.5%.

For `CCOC(=O)C1CCN(C(=O)CCC2CCCC2)CC1`, the “hERG current change (%, negative = inhibition) at 1uM” value was 17.5%. On to `O=C(COC(=O)c1ccco1)Nc1ccc(Br)cc1`, for which the “hERG current change (%, negative = inhibition) at 1uM” value turned out to be 15.3%. The value for `O=C(CCN1C(=O)C2CC=C(Cl)CC2C1=O)Nc1ccccc1O` (centres unmarked) was 9.28%. The value for `Cc1ccc(CCNC(=O)C2CCC(=O)N2Cc2cccnc2)cc1` (centres unmarked) was 15.9%; that for `Cn1c(=O)c(C(N)=S)cn(-c2ccccc2)c1=O` was 10.4%; that for `Cc1ccc(-c2cc(Cc3ccccc3)c(=O)[nH]n2)cc1` was 16.8%. The value for `CCCCCc1c(C)nc(NCc2ccccc2)[nH]c1=O` was -3.53%; that for `CC(=O)NCCN=C(C)c1sc2ccccc2c1O` was 19%; that for `Cc1oc(=O)c(NC(=O)c2ccc(Cl)cc2)cc1C(=O)c1ccccc1` was 13.8%.

In the case of `Cc1ccc2[nH]c(=O)c(C(c3nnnn3C3CCCC3)N3CCCc4ccccc43)cc2c1` (centres unmarked), the “hERG current change (%, negative = inhibition) at 1uM” value was -2.97%. The result for `CCNC(=S)Nc1ccccc1-c1ccccc1` reads 8.17%.

As for `CCC(=O)c1ccc(OCC(=O)OCC(=O)Nc2cccc(S(=O)(=O)N3CCCC3)c2)cc1`, the “hERG current change (%, negative = inhibition) at 1uM” value amounted to 9.49%. The value for `O=C(c1ccc(CS(=O)c2ccccc2Cl)o1)N1CCCCCC1` (centres unmarked) was 23.3%. For the molecule `COC(=O)[C@@]12CCCCN1[C@H](c1ccc(-c3ccc(OC)cc3)cc1)[C@@H]1C(=O)N(C)C(=O)[C@@H]12.O=C(O)C(F)(F)F`, the “hERG current change (%, negative = inhibition) at 1uM” value is 8.54%.

Take `Cc1cc(C(F)(F)F)cc(NNC(=O)NC(=O)c2ccc(Cl)cc2)n1`: the “hERG current change (%, negative = inhibition) at 1uM” value worked out at 17.4%. Turning to `S=c1[nH]c2cc(-c3ccccc3)ccc2o1`, the “hERG current change (%, negative = inhibition) at 1uM” value turned out to be 15.5%. The value for `Cc1ccc(C[n+]2c(-c3ccc(C)cc3)cc(-c3ccc(C)cc3)cc2-c2ccc(C)cc2)cc1.[O-][Cl+3]([O-])([O-])[O-]` was -61.7%. The value for `Cc1cc(C)c(C)c(S(=O)(=O)N[C@@H](C)C(=O)OC(C)C(=O)NC(N)=O)c1C` (some centres unmarked) was 1.09%; that for `Cc1cccc(NC(=O)C2CCCN(S(=O)(=O)c3cccc4nsnc34)C2)c1` (centres unmarked) was -0.475%; that for `CCC(C)N(C(=O)CSc1nnc(C)n1C)C1CCS(=O)(=O)C1` (centres unmarked) was -1.72%. `Cc1cc(C(=O)COC(=O)c2ccc(N)c([N+](=O)[O-])c2)c(C)n1Cc1ccc2c(c1)OCO2`: the “hERG current change (%, negative = inhibition) at 1uM” value was -2.33%.

With `S=c1[nH]nc(CSc2nc3ccccc3s2)n1C1CCCCC1`, the “hERG current change (%, negative = inhibition) at 1uM” value stood at 11%. The result for `CC(C)(C)CC(=O)O/N=C(\N)c1ccccn1` reads 5.7%; that for `Cc1cc(OCCN2CCCC2)cc(C(C)C)c1.O=C(O)C(=O)O`, 7.79%. The value for `COc1ccc(C2(C(=O)NC3CCCCC3)CCOCC2)cc1OC` was 12.7%. The result for `CC(=O)Nc1cccc(NC(=O)Nc2cccc3ccccc23)c1` reads 12.8%; that for `CC(C)(C)OC(=O)N1CCC(C(=O)NNC(=O)c2ccc(Cl)cc2Cl)CC1`, 13.1%; that for `Cc1cccc(NC(=O)c2sc(C)nc2C)c1`, -10.3%. As to `O=C(CCN1CCN(Cc2ccccc2)CC1)Nc1ccccc1Cl`, the “hERG current change (%, negative = inhibition) at 1uM” value amounted to 1.86%. The value for `Cc1cc(C2=NNC(=Nc3ccc(S(=O)(=O)N4CCOCC4)cc3)SC2)c(C)n1CC1CCCO1` (centres unmarked) was 15.4%; that for `CCOc1ccc(NC(=O)C2CCN(C(=O)C3CC(=O)N(c4ccc(C)cc4)C3)CC2)cc1` (centres unmarked) was 7.43%; that for `CCCc1cc(=O)oc2cc(C)cc(OCC(=O)Nc3ccc(S(N)(=O)=O)cc3)c12` was 13.2%. For `O=C(CSc1cccc[n+]1[O-])c1cc(Cl)ccc1Cl`, the “hERG current change (%, negative = inhibition) at 1uM” value came to 4.18%. The value for `CCOc1ccc(NS(=O)(=O)c2ccc3c(c2)N(C(C)=O)CCO3)cc1` was 17%. For `CC(C)NC(=O)CCS(=O)(=O)c1cccc2nonc12`, the “hERG current change (%, negative = inhibition) at 1uM” value came out at 5.68%. In the case of `Cc1cccc(N(CC(=O)NC2CCCC2)C(=O)c2c(C)noc2C)c1`, the “hERG current change (%, negative = inhibition) at 1uM” value amounted to 22.7%. The result for `Cc1ccc(Oc2coc3cc(OC(=O)c4cccs4)ccc3c2=O)cc1` reads 0.74%. For `CCOc1ccc(-n2c(=O)cc(N3CCN(c4ccccc4)CC3)[nH]c2=O)cc1`, the “hERG current change (%, negative = inhibition) at 1uM” value amounted to 11.9%. The value for `O=C(Nc1nnc(-c2ccccc2)o1)c1cc(-c2cccs2)nc2ccccc12` was 5.77%. The value for `O=C(NCc1ccc(C(F)(F)F)cc1)C1CC(c2ccccc2[N+](=O)[O-])=NO1` (centres unmarked) was -4.52%; that for `FC(F)Oc1ccccc1NC(=S)Nc1cccc(Cl)c1Cl` was 12.3%.

Turning to `COc1ccc(O)c(/C=N/NC(=O)c2ccc(OCc3cccc(Br)c3)cc2)c1`, the “hERG current change (%, negative = inhibition) at 1uM” value turned out to be 6.08%. For `COc1ccc(C2Nc3ccccc3C(=O)N2Cc2ccco2)cc1COc1ccc(F)cc1` (centres unmarked), the “hERG current change (%, negative = inhibition) at 1uM” value was -3.21%.

As to `FC(F)(F)c1ccc(NC(=S)NCc2ccccc2)cc1`, the “hERG current change (%, negative = inhibition) at 1uM” value was found to be 13.5%.

For `COC(=O)[C@H]1Cc2cnoc2C[C@]1(C)C(=O)O`, the “hERG current change (%, negative = inhibition) at 1uM” value amounted to 8.42%.

In the case of `CC(=O)Nc1ccccc1C(=O)N1CCN(c2cccc(C)c2C)CC1`, the “hERG current change (%, negative = inhibition) at 1uM” value was 10.5%. Consider `CN(C)C(=S)c1ccc(N(C)C)cc1`, for which the “hERG current change (%, negative = inhibition) at 1uM” value stood at 12.8%. For `CCOc1cc(/C=N/NC(=O)CSc2nncn2C)ccc1OCc1ccccc1`, the “hERG current change (%, negative = inhibition) at 1uM” value was determined as 3.73%. The value for `CCOc1ccc(CCNC(=O)Cc2ccc(NC(=O)C3=C(C)OCCS3)cc2)cc1` was 13.2%.

As to `O=C(Nc1cccc(-c2nn[nH]n2)c1)c1ccc(Cl)s1`, the “hERG current change (%, negative = inhibition) at 1uM” value amounted to 15.5%. As to `Cc1nc(N2CCN(c3ccc(Cl)cc3)CC2)[nH]c(=O)c1C`, the “hERG current change (%, negative = inhibition) at 1uM” value was found to be 15.4%. The result for `Cc1ccc(NC(=O)Cn2nnc3ccccc3c2=O)cc1C` reads 15.9%.

Consider `COc1ccc(OC)c(CN(CCCN2CCOCC2)S(=O)(=O)c2ccc(NC(C)=O)cc2)c1`, for which the “hERG current change (%, negative = inhibition) at 1uM” value was found to be 9.53%.

As for `CCCCOC(=O)CSc1nc2ccccc2o1`, the “hERG current change (%, negative = inhibition) at 1uM” value was 8.88%. For `COc1ccc(S(=O)(=O)N2CC(=O)Nc3ccccc32)cc1`, the “hERG current change (%, negative = inhibition) at 1uM” value was determined as 5.56%. The result for `COc1ccccc1C(=O)Nc1sc2c(c1C(=O)NCc1ccco1)CCCC2` reads 11%. The value for `CCCn1c(SCC(=O)Nc2ccccc2OC)nnc1-c1ccco1` was -18.2%. In the case of `Cc1ccc(C2C=C(c3ccccc3OC(F)F)Nc3ncnn32)cc1` (centres unmarked), the “hERG current change (%, negative = inhibition) at 1uM” value worked out at 6.54%. The value for `Cc1ccc(/C=N/NC(=O)c2ccoc2C)s1` was 9.86%.

In the case of `N/C(=N\OC(=O)COc1ccc(Br)cc1Cl)c1ccccn1`, the “hERG current change (%, negative = inhibition) at 1uM” value came to 10.7%. The value for `Cn1c(SCC(=O)NCC2CCCO2)nnc1-c1ccc(S(=O)(=O)N2CCCC2)cc1` (centres unmarked) was 15.1%; that for `Cn1c(=O)n(C)c2cc(S(=O)(=O)O)ccc21` was 3.24%.

Regarding `CCNc1nc(NC(C)C)nc(OCCOC(=O)Nc2ccccc2)n1`, the “hERG current change (%, negative = inhibition) at 1uM” value is recorded as 7.72%.

For `CCOC(=O)c1c(C)[nH]c(C)c1C(=O)COC(=O)CNC(=O)c1ccc(OCC)cc1`, the “hERG current change (%, negative = inhibition) at 1uM” value is 5.18%. For `CC(C)(Cc1cccc(CC(C)(C)C(=O)O)c1)C(=O)O`, the “hERG current change (%, negative = inhibition) at 1uM” value amounted to 16.6%. Take `CC(C)[C@H](NC(=O)C1CCN(S(=O)(=O)c2ccc(F)cc2)CC1)C(=O)NCc1ccco1`: the “hERG current change (%, negative = inhibition) at 1uM” value was 10.4%. The value for `CCOC(=O)c1sc(=S)n(CC)c1NC(=O)c1ccccc1C` was 11.5%. The result for `CC1CN(C(=O)/C=C/c2ccc(SC(F)F)cc2)CC(C)O1` (centres unmarked) reads -22.2%; that for `CCCC[n+]1ccn(-c2nc3ccccc3nc2[N-]S(=O)(=O)c2cccs2)c1`, 7.46%; that for `C=C(C)COc1ccc2c(C)c(CCC(=O)NC3CC3)c(=O)oc2c1`, 4.96%. As for `CC(C)C(=O)NN1c2ccccc2CCc2ccccc21`, the “hERG current change (%, negative = inhibition) at 1uM” value is 6.18%.

Consider `COc1cccc(/C=N/Nc2ncc(C)c(=O)[nH]2)c1OC`, for which the “hERG current change (%, negative = inhibition) at 1uM” value amounted to 10.1%. The result for `Cc1cc(NC(=O)c2ccc(NC(=O)C3CC3)cc2)no1` reads 17.1%; that for `Cc1cc(-n2cc(Br)c(=O)[nH]c2=O)nc(-c2ccccc2)n1`, 5.85%. Take `NS(=O)(=O)c1ccc(O)c(NC(=O)c2ccc([N+](=O)[O-])cc2)c1`: the “hERG current change (%, negative = inhibition) at 1uM” value was 5.12%. `COc1ccc(-c2csc3ncnc(N4CCN(S(=O)(=O)c5cccc(Br)c5)CC4)c23)cc1`: the “hERG current change (%, negative = inhibition) at 1uM” value came out at 17.4%. Consider `O=C(CSc1ncc(S(=O)(=O)c2ccccc2)c(=O)[nH]1)Nc1ccccc1Cl`, for which the “hERG current change (%, negative = inhibition) at 1uM” value is -1.4%. The value for `COc1ccc(OC)c(S(=O)(=O)n2nnc3ccccc32)c1` was -3.46%; that for `Cc1ccc(NC(=O)CN2C(=O)NC(C)(c3ccc(Cl)cc3)C2=O)c(Br)c1` (centres unmarked) was 10.1%. The value for `CSc1ccc(CN(C)Cc2nc3cc(C(F)(F)F)ccc3c(=O)[nH]2)cc1` was 17%. On to `Cc1nc(Cl)c(Cl)n1CCOc1ccccc1`, for which the “hERG current change (%, negative = inhibition) at 1uM” value was determined as 9.6%.
